MIC of invasive clinical C. tropicalis isolates, CLSI broth microdilution (fluconazole 0.12-256 mg/L, up to 1,024 for the azole-resistant cluster and its neighbour group; other ranges not stated); higher = less susceptible. Call: susceptible or wild type [S] / resistant or non-wild type [R] by CLSI breakpoints or cut-offs; intermediate and dose-dependent carry no call. '<=' and '>=' at the end values are inferred; the source marks only some of them. Isolates are numbered anew.
compound: CCCCCOc1ccc(-c2cc(-c3ccc(C(=O)N[C@H]4C[C@@H](O)[C@@H](O)NC(=O)[C@@H]5[C@@H](O)[C@@H](C)CN5C(=O)[C@H]([C@H](O)CC(N)=O)NC(=O)[C@H]([C@H](O)[C@@H](O)c5ccc(O)c(OS(=O)(=O)O)c5)NC(=O)[C@@H]5C[C@@H](O)CN5C(=O)[C@H]([C@@H](C)O)NC4=O)cc3)no2)cc1 [micafungin]; test: CLSI broth microdilution.

Test System | MIC
Candida tropicalis isolate 341 (ERG11 copies: 2, Erg11p: Y132F, S154F (heterozygous)) | 0.03 mg/L [S]
Candida tropicalis isolate 37 (ERG11 copies: 2, Erg11p: no key change) | 0.03 mg/L [S]
Candida tropicalis isolate 95 (ERG11 copies: 2, Erg11p: no key change) | 0.03 mg/L [S]
Candida tropicalis isolate 45 (ERG11 copies: 2, Erg11p: no key change) | 0.03 mg/L [S]
Candida tropicalis isolate 404 (ERG11 copies: 2, Erg11p: no key change) | 0.03 mg/L [S]
Candida tropicalis isolate 44 (ERG11 copies: 2, Erg11p: no key change) | 0.03 mg/L [S]
Candida tropicalis isolate 286 (ERG11 copies: 2, Erg11p: no key change) | 0.03 mg/L [S]
Candida tropicalis isolate 30 (ERG11 copies: 2, Erg11p: no key change) | 0.03 mg/L [S]
Candida tropicalis isolate 285 (ERG11 copies: 2, Erg11p: no key change) | 0.03 mg/L [S]
Candida tropicalis isolate 28 (ERG11 copies: 2, Erg11p: no key change) | 0.015 mg/L [S]
Candida tropicalis isolate 334 (ERG11 copies: 2, Erg11p: no key change) | 0.06 mg/L [S]
Candida tropicalis isolate 121 (ERG11 copies: 2, Erg11p: no key change) | 0.015 mg/L [S]
Candida tropicalis isolate 287 (ERG11 copies: 2, Erg11p: no key change) | 0.06 mg/L [S]
Candida tropicalis isolate 20 (ERG11 copies: 8, Erg11p: Y132F, S154F (heterozygous)) | 0.03 mg/L [S]
Candida tropicalis isolate 65 (ERG11 copies: 2, Erg11p: no key change) | 0.03 mg/L [S]
Candida tropicalis isolate 282 (ERG11 copies: 2, Erg11p: no key change) | 0.03 mg/L [S]
Candida tropicalis isolate 183 (ERG11 copies: 2, Erg11p: no key change) | 0.03 mg/L [S]
Candida tropicalis isolate 353 (ERG11 copies: 2, Erg11p: no key change) | 0.03 mg/L [S]
Candida tropicalis isolate 189 (ERG11 copies: 2, Erg11p: no key change) | 0.06 mg/L [S]
Candida tropicalis isolate 76 (ERG11 copies: 8, Erg11p: Y132F, S154F (heterozygous)) | 0.06 mg/L [S]
Candida tropicalis isolate 440 (ERG11 copies: 5, Erg11p: Y132F, S154F (heterozygous)) | 0.06 mg/L [S]
Candida tropicalis isolate 405 (ERG11 copies: 2, Erg11p: Y132F, S154F (homozygous)) | 0.03 mg/L [S]
Candida tropicalis isolate 378 (ERG11 copies: 8, Erg11p: Y132F, S154F (heterozygous)) | 0.06 mg/L [S]
Candida tropicalis isolate 427 (ERG11 copies: 2, Erg11p: no key change) | 0.03 mg/L [S]
Candida tropicalis isolate 205 (ERG11 copies: 6, Erg11p: Y132F, S154F (heterozygous)) | 0.03 mg/L [S]
Candida tropicalis isolate 352 (ERG11 copies: 2, Erg11p: no key change) | 0.03 mg/L [S]
Candida tropicalis isolate 374 (ERG11 copies: 2, Erg11p: no key change) | 0.03 mg/L [S]

compound: CC[C@H](C)C[C@H](C)CCCCCCCCC(=O)N[C@H]1C[C@@H](O)[C@@H](NCCN)NC(=O)[C@@H]2[C@@H](O)CCN2C(=O)[C@H]([C@H](O)CCN)NC(=O)[C@H]([C@H](O)[C@@H](O)c2ccc(O)cc2)NC(=O)[C@@H]2C[C@@H](O)CN2C(=O)[C@H]([C@@H](C)O)NC1=O [caspofungin]; test: CLSI broth microdilution.

Test System | MIC
Candida tropicalis isolate 149 (ERG11 copies: 8, Erg11p: Y132F, S154F (heterozygous)) | 0.03 mg/L [S]
Candida tropicalis isolate 187 (ERG11 copies: 2, Erg11p: no key change) | 0.03 mg/L [S]
Candida tropicalis isolate 436 (ERG11 copies: 2, Erg11p: no key change) | 0.06 mg/L [S]
Candida tropicalis isolate 50 (ERG11 copies: 2, Erg11p: no key change) | 0.03 mg/L [S]
Candida tropicalis isolate 148 (ERG11 copies: 2, Erg11p: no key change) | 0.12 mg/L [S]
Candida tropicalis isolate 298 (ERG11 copies: 2, Erg11p: no key change) | 0.03 mg/L [S]
Candida tropicalis isolate 346 (ERG11 copies: 9, Erg11p: Y132F, S154F (heterozygous)) | 0.03 mg/L [S]
Candida tropicalis isolate 78 (ERG11 copies: 8, Erg11p: Y132F, S154F (heterozygous)) | 0.03 mg/L [S]
Candida tropicalis isolate 221 (ERG11 copies: 2, Erg11p: no key change) | 0.03 mg/L [S]
Candida tropicalis isolate 341 (ERG11 copies: 2, Erg11p: Y132F, S154F (heterozygous)) | 0.06 mg/L [S]
Candida tropicalis isolate 37 (ERG11 copies: 2, Erg11p: no key change) | 0.25 mg/L [S]
Candida tropicalis isolate 95 (ERG11 copies: 2, Erg11p: no key change) | 0.03 mg/L [S]
Candida tropicalis isolate 45 (ERG11 copies: 2, Erg11p: no key change) | 0.06 mg/L [S]
Candida tropicalis isolate 404 (ERG11 copies: 2, Erg11p: no key change) | 0.12 mg/L [S]
Candida tropicalis isolate 44 (ERG11 copies: 2, Erg11p: no key change) | 0.06 mg/L [S]
Candida tropicalis isolate 286 (ERG11 copies: 2, Erg11p: no key change) | 0.03 mg/L [S]
Candida tropicalis isolate 30 (ERG11 copies: 2, Erg11p: no key change) | 0.015 mg/L [S]
Candida tropicalis isolate 285 (ERG11 copies: 2, Erg11p: no key change) | 0.03 mg/L [S]

Test System | MIC
Candida tropicalis isolate 28 (ERG11 copies: 2, Erg11p: no key change) | 0.03 mg/L [S]
Candida tropicalis isolate 334 (ERG11 copies: 2, Erg11p: no key change) | 0.06 mg/L [S]
Candida tropicalis isolate 121 (ERG11 copies: 2, Erg11p: no key change) | 0.06 mg/L [S]
Candida tropicalis isolate 287 (ERG11 copies: 2, Erg11p: no key change) | 0.03 mg/L [S]
Candida tropicalis isolate 20 (ERG11 copies: 8, Erg11p: Y132F, S154F (heterozygous)) | 0.06 mg/L [S]
Candida tropicalis isolate 65 (ERG11 copies: 2, Erg11p: no key change) | 0.03 mg/L [S]
Candida tropicalis isolate 282 (ERG11 copies: 2, Erg11p: no key change) | 0.03 mg/L [S]
Candida tropicalis isolate 183 (ERG11 copies: 2, Erg11p: no key change) | 0.03 mg/L [S]
Candida tropicalis isolate 353 (ERG11 copies: 2, Erg11p: no key change) | 0.03 mg/L [S]
Candida tropicalis isolate 189 (ERG11 copies: 2, Erg11p: no key change) | 0.06 mg/L [S]
Candida tropicalis isolate 76 (ERG11 copies: 8, Erg11p: Y132F, S154F (heterozygous)) | 0.12 mg/L [S]
Candida tropicalis isolate 440 (ERG11 copies: 5, Erg11p: Y132F, S154F (heterozygous)) | 0.25 mg/L [S]
Candida tropicalis isolate 405 (ERG11 copies: 2, Erg11p: Y132F, S154F (homozygous)) | 0.06 mg/L [S]
Candida tropicalis isolate 378 (ERG11 copies: 8, Erg11p: Y132F, S154F (heterozygous)) | 0.25 mg/L [S]
Candida tropicalis isolate 427 (ERG11 copies: 2, Erg11p: no key change) | 0.03 mg/L [S]
Candida tropicalis isolate 205 (ERG11 copies: 6, Erg11p: Y132F, S154F (heterozygous)) | 0.06 mg/L [S]
Candida tropicalis isolate 352 (ERG11 copies: 2, Erg11p: no key change) | 0.03 mg/L [S]
Candida tropicalis isolate 374 (ERG11 copies: 2, Erg11p: no key change) | 0.03 mg/L [S]

compound: CC[C@@H]([C@H](C)O)n1ncn(-c2ccc(N3CCN(c4ccc(OC[C@@H]5CO[C@@](Cn6cncn6)(c6ccc(F)cc6F)C5)cc4)CC3)cc2)c1=O [posaconazole]; test: CLSI broth microdilution.

Test System | MIC
Candida tropicalis isolate 149 (ERG11 copies: 8, Erg11p: Y132F, S154F (heterozygous)) | 1 mg/L [R]
Candida tropicalis isolate 187 (ERG11 copies: 2, Erg11p: no key change) | 0.5 mg/L [R]
Candida tropicalis isolate 436 (ERG11 copies: 2, Erg11p: no key change) | 0.06 mg/L [S]
Candida tropicalis isolate 50 (ERG11 copies: 2, Erg11p: no key change) | 0.5 mg/L [R]
Candida tropicalis isolate 148 (ERG11 copies: 2, Erg11p: no key change) | 0.5 mg/L [R]
Candida tropicalis isolate 298 (ERG11 copies: 2, Erg11p: no key change) | 0.5 mg/L [R]
Candida tropicalis isolate 346 (ERG11 copies: 9, Erg11p: Y132F, S154F (heterozygous)) | 1 mg/L [R]
Candida tropicalis isolate 78 (ERG11 copies: 8, Erg11p: Y132F, S154F (heterozygous)) | 1 mg/L [R]
Candida tropicalis isolate 221 (ERG11 copies: 2, Erg11p: no key change) | 0.25 mg/L [S]
Candida tropicalis isolate 341 (ERG11 copies: 2, Erg11p: Y132F, S154F (heterozygous)) | 0.12 mg/L [S]
Candida tropicalis isolate 37 (ERG11 copies: 2, Erg11p: no key change) | 2 mg/L [R]
Candida tropicalis isolate 95 (ERG11 copies: 2, Erg11p: no key change) | 0.5 mg/L [R]
Candida tropicalis isolate 45 (ERG11 copies: 2, Erg11p: no key change) | 0.25 mg/L [S]
Candida tropicalis isolate 404 (ERG11 copies: 2, Erg11p: no key change) | 0.25 mg/L [S]
Candida tropicalis isolate 44 (ERG11 copies: 2, Erg11p: no key change) | ≥ 8 mg/L [R]
Candida tropicalis isolate 286 (ERG11 copies: 2, Erg11p: no key change) | 0.12 mg/L [S]
Candida tropicalis isolate 30 (ERG11 copies: 2, Erg11p: no key change) | 0.06 mg/L [S]
Candida tropicalis isolate 285 (ERG11 copies: 2, Erg11p: no key change) | 0.25 mg/L [S]

— the supplement of paper PMC10724272
